Test results taken from the supplement of paper PMC4466236.
The full ranking holds about 33,000 sequences; the median of “E-score (dimensionless, -0.5 to 0.5)” is about -0.058, and the highest 2% start at about 0.35. This is one part of the list.

System: MvaT
Experiment: PBM 8-mer E-score (mean of HK and ME arrays) (E-score (dimensionless, -0.5 to 0.5)); higher = stronger relative binding preference; most listed sequences are background and not binding sites
How it was run: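 Reported values are rank-based E-scores, taken as the mean of two universal arrays and parsed with a custom script. Each 8-mer score falls between -0.5 and 0.5. The arrays, ME and HK, were double-stranded 60-mers with a constant 25-mer primer region and a variable 35-mer region covering all 8-mers. They were probed, by an earlier protocol, with full-length P. aeruginosa MvaT carrying an N-terminal glutathione S-transferase fusion.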

Sequence	PBM 8-mer E-score
GGACGCCC	-0.376
TGGTGAAA	0.0106
AAGGTAGG	-0.107
CCAGGTCG	-0.171
ACGCGCTA	0.13
ATCTGCGC	-0.0527
GCATGCAA	0.101
TAAAACCA	0.176
CTGCAGCA	-0.157
CGCCGCCC	-0.334
CTTCAGTA	-0.0541
CAGGCAAG	-0.116
ACAGTCGC	-0.0394
AGCCCATC	-0.146
ACGACACT	0.0503
CCACTCTC	-0.0989
CCGACCAA	-0.0461
GGGCAGCA	-0.139
AGGCTCGA	-0.246
CCACGGCG	-0.3
TGGCCCAA	-0.248
GCAAGACA	-0.0189
GTTAATAA	0.377
CTGTCGAC	-0.0262
ATTCTAGA	0.161

Sequence	PBM 8-mer E-score
ACGTCGTA	-0.0795
ACGAGTGG	-0.0751
AGTGATTG	-0.0609
CCGGTGGA	-0.173
AATCCAGG	-0.169
AATGCGAT	0.0892
ACAGACGA	-0.0669
CGTAGTAA	0.0808
ACCTAGCA	-0.0765
CCAAAGGC	-0.237
AAGATATG	0.136
GAAGGCAA	-0.252
TCCGAGCA	-0.0557
CCGTCACG	-0.177
ACGTCAGC	-0.156
AGCCAATC	-0.00652
GCTATGAC	-0.196
AGGGCCAA	-0.211
GAGTGGAA	-0.0786
AGGAGCAA	-0.265
CTAGCTCA	-0.255
CATGGATC	-0.101
AGTATGCC	0.0426
GATAGTTA	0.311
AATTCGAA	0.273

Sequence	PBM 8-mer E-score
CTGGTCGA	-0.0624
GCACATAC	0.0384
ACGTCTCA	-0.161
ACGGTTTC	-0.215
GCCCGATA	-0.0689
CCGCAAAG	-0.132
CACGTGAG	-0.25
GCTACAAA	0.0198
ACGTTGAA	0.0445
ATGCAACC	0.0111
TGTCAGAA	0.0626
AAGTTCGG	0.18
AAGAGATG	-0.0906
CTGGACCA	-0.177
CACTATTC	0.0563
CATGCACG	-0.217
AAGGATGA	0.0205
ATCGGCTC	-0.211
ACTTCGAG	-0.0815
GGTGCCAA	-0.115
ACACTTGG	0.0839
AGACGTTA	-0.0883
GACCTTGA	-0.138
AGGTAGGG	-0.206
AAACATCA	0.194

Sequence	PBM 8-mer E-score
AGAATTCC	0.0415
CAGACGGG	-0.162
AGGATTGC	-0.0862
AAATCCCG	0.00917
CAGGGATC	-0.197
GACAAATA	0.297
AGGACTCG	-0.265
TGATTGCA	0.0321
ACCCGCAC	-0.0475
ATGAGCCA	-0.115
CCCCACGC	-0.208
CGCCGCTC	-0.268
ATGATATC	0.131
AATAAGAC	0.252
CGTCTAGC	-0.205
AAGCCCGA	-0.275
CCCGCCTA	-0.181
GGATTAAC	0.111
ACACAATC	0.0501
CGAGAATC	-0.265
ATCGACCA	-0.0716
TAAGGGAA	0.144
CATCCGGC	-0.182
TTAAAGAA	0.219
ATTAGATG	0.263

Sequence	PBM 8-mer E-score
CATTCAAC	0.0852
CAAATAAG	0.262
AGTAACTA	0.274
CGTTATAC	0.21
CCTCGGCC	-0.271
ACACCCAC	-0.036
CAGTAATG	0.146
TCACTAGA	-0.11
CTTAGTCC	0.0516
TAGCCGAA	-0.0401
TACCGCTA	-0.019
CGTGTGGA	-0.0774
AGAACCGC	-0.132
AGACACTC	-0.161
ACTTCAAC	0.256
GAGACACA	-0.0772
AAAAACTA	0.301
ATACTCTA	0.206
GTCGCCGA	-0.124
AACCCGTC	-0.0101
GCAGTAAC	-0.0164
AAAGATAC	0.0547
AGAGGGGC	-0.265
GCTGTAAC	0.00489
AATCACCC	-0.116

Sequence	PBM 8-mer E-score
AAGGCAAC	0.0918
ACGGGACA	-0.0659
CAGATTTA	0.238
AAGGTCGC	-0.148
ACAGATCT	-0.0219
CTATTCAG	0.000141
ACCGCCTC	-0.258
ATATATCA	0.427
AATTGAGG	0.157
AAGATCCT	-0.18
GCCCAAGA	-0.225
AGTTGGCC	0.017
GCTTCCAC	-0.205
CGGGCGCC	-0.289
ATGCCAGA	-0.158
GTGCATAA	0.193
GTGGTCCA	-0.131
ACCAAACT	0.0981
ACCATGAA	-0.0165
GGCGCTCA	-0.203
CTAACAGA	0.00653
CACCCGAG	-0.206
ACTTGGCT	0.0613
AGCTATTC	-0.0785
ACAACAAT	0.372

Sequence	PBM 8-mer E-score
ATGCAGTC	-0.089
GATCTCCC	-0.213
CCCAAGAG	-0.121
AGGGCACC	-0.22
AGAAGCCG	-0.228
AGCTCCTG	-0.244
AATAAAGG	0.228
TGAGTTAA	0.272
CGCAGAGA	-0.271
GGTGAAAA	0.082
AATAAATA	0.434
AGCGACTC	-0.288
GTGGTGTA	0.173
GCTAGTCA	-0.0847
CAAAATAG	0.166
AGCATGGA	-0.19
AGCGACAG	-0.0961
TGAATACA	0.128
CATCAAGA	-0.0894
AACGTAAC	0.121
AAAAGTCT	0.157
CAGGGCAA	-0.203
